Results as given in PubChem BioAssay AID504339 (National Center for Advancing Translational Sciences (NCATS), 2011).
The campaign covered roughly 390,000 compounds. About 17,000 (4.4%) were called active. Inconclusive means that the source gave no clear call. Such entries were picked first, then a sample of the others. Calls come from the whole dose curve; as a rule, active = well fitted inhibition curve with a large enough effect; inconclusive = small, poorly fitted or top-dose-only effect; inactive = no such curve, though single readings can be large or run the other way. Potencies beside an inconclusive call are fits to weak or partial responses and may not hold up.

Target: Lysine-specific demethylase 4A (Homo sapiens) (UniProt O75164)
UniProt O75164, sequence (O75164 whole entry, looked up, the tested form may be a part): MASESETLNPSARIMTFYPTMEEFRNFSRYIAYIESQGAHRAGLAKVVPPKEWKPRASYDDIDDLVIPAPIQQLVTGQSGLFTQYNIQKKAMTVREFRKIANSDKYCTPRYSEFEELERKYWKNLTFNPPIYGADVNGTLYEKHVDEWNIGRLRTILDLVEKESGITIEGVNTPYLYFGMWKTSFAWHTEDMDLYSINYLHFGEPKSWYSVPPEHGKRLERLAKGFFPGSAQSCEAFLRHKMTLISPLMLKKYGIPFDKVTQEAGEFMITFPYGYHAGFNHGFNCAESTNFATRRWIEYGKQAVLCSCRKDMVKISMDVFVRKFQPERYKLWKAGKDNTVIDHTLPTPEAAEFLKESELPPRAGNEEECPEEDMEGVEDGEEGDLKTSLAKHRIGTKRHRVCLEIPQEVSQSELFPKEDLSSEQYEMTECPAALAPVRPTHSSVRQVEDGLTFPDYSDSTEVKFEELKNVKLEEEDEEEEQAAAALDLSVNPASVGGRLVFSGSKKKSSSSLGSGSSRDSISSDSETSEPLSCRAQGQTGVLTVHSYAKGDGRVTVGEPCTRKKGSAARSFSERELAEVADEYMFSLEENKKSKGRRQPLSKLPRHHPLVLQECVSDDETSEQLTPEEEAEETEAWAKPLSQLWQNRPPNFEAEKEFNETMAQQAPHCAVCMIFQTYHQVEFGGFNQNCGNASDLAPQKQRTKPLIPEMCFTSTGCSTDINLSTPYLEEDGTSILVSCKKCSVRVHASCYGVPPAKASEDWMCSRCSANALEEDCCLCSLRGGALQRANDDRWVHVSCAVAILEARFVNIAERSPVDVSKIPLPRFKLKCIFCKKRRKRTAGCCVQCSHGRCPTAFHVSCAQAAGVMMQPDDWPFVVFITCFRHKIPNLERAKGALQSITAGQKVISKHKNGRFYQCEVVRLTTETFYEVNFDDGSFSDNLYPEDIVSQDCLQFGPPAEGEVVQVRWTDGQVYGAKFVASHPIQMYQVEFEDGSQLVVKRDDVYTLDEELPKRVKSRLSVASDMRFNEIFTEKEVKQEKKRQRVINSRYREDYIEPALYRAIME
Assay: qHTS Assay for Inhibitors of JMJD2A-Tudor Domain; note: nearly all actives have a fitted effect of over 50% in size
Details: AlphaScreen JMJD2A-Tudor / H3K4me3 peptide binding; series mostly up to 114 µM
Potency is the fitted concentration of half-maximal effect; tags give direction and shape of the fitted curve.

Compound	Potency
COC(=O)C1=C(C)N(c2cc(C)cc(C)c2)/C(=C/c2ccco2)C1=O	active: 79.4 µM
COc1ccc(OCCCN(C)Cc2ccccc2)cc1	active: 25.1 µM
CC(=O)Nc1ccc(C(=O)N/N=C/c2cc(Br)cc(Br)c2O)cc1	active: 56.2 µM
COc1cc(NS(C)(=O)=O)ccc1Nc1c2ccccc2nc2ccccc12	inconclusive: 63.1 µM [inhibitor, partial curve, poor fit]
COc1ccc2[nH]cc(CCNC(=O)c3ccc4ccccc4n3)c2c1	inconclusive: 50.1 µM [inhibitor, partial curve]
Nn1c(-c2ccccn2)nnc1-c1ccccn1	active: 79.4 µM
OCCNc1nc(Nc2ccc(Cl)c(Cl)c2)nc2ccccc12	inconclusive: 63.1 µM [inhibitor, partial curve, poor fit]
CCN(CC)C(=O)c1sc2c(c1C)c(=O)n(-c1ccc(Cl)c(Cl)c1)c(=O)n2Cc1cc(=O)n2c(C)cccc2n1	inconclusive: 70.8 µM [inhibitor, single point]
NC(=O)c1cc(S(=O)(=O)N2CCc3ccccc3C2)cs1	inconclusive: 17.8 µM [inhibitor, full curve]
C=CCc1c(C)nc(-c2ccccc2)nc1N/N=C/c1ccncc1	inconclusive: 63.1 µM [inhibitor, partial curve, poor fit]
CN(C)CC/C=C1\c2ccc(F)cc2Sc2cc(F)c(Cl)cc21	inconclusive: 56.2 µM [inhibitor, partial curve]
Cc1ccc(Sc2ccc(CN3CCCC3)cc2[N+](=O)[O-])cc1	active: 44.7 µM
C=CCn1c(-c2ccccc2OCC)n[nH]c1=S	active: 4.47 µM
COc1cc(C(=O)N2CCN(S(=O)(=O)c3cccs3)CC2)cc(OC)c1C	active: 79.4 µM
O=C(c1ccco1)N1CCN(C(c2ccc(F)cc2)c2nnnn2Cc2cccs2)CC1 (stereo not drawn)	inactive
O=C(/C=C/c1ccco1)Nc1ccc(Cl)c(S(=O)(=O)N2CCOCC2)c1	inconclusive: 89.1 µM [inhibitor, partial curve]
N#Cc1nc(Cc2cccc3ccccc23)oc1NCCCn1ccnc1	inconclusive: 56.2 µM [inhibitor, partial curve, poor fit]
O=C(O)c1ccc(S(=O)(=O)/N=C2\C=C(Nc3ccccc3F)C(=O)c3ccccc32)cc1	active: 39.8 µM
COC(=O)CSc1nc(N)c(C#N)c(-c2ccco2)c1C#N	inactive
CCCN(C(=O)CSc1nc2c(cnn2-c2ccccc2)c(=O)[nH]1)C1CCS(=O)(=O)C1 (stereo not drawn)	inconclusive: 79.4 µM [inhibitor, single point]
O=C(c1cccc(-n2cccc2)c1)N1CCN(S(=O)(=O)c2ccccc2)CC1	active: 5.62 µM
Cc1nc(CC(=O)Nc2ccc(N(C)C)cc2)cs1	inconclusive: 22.4 µM [inhibitor, partial curve, poor fit]
Cc1ccccc1S(=O)(=O)/N=C(/c1ccccc1)N1CCOCC1	active: 31.6 µM
CCCCOC(=O)C(C)Nc1n[nH]c(=S)[nH]c1=O (stereo not drawn)	active: 11.2 µM
O=C1CN(C(=O)c2ccc(Br)o2)C(c2ccccc2)c2cc(Br)ccc2N1 (stereo not drawn)	inconclusive: 39.8 µM [inhibitor, partial curve]

Compound	Potency
Cc1nc(NC(C)(C)CO)c([N+](=O)[O-])cc1[N+](=O)[O-]	inconclusive: 89.1 µM [inhibitor, single point]
CCc1ccc(-n2nc(C)c3c(C(=O)Nc4cc(OC)cc(OC)c4)cc(C)nc32)cc1	inactive
O=C(COc1ccc2c(c1)CCC2)N1CCc2ccccc21	active: 39.8 µM
Cc1cc(C(=O)Nn2c(-c3ccc(Br)cc3)nc3ccccc3c2=O)ccc1[N+](=O)[O-]	inactive
Cc1cc(C)c(OCCCCN2CCC(C)CC2)c(Br)c1	active: 5.01 µM
O=C(O)c1c[nH]ccc1=O	active: 7.08 µM
CCOC(=O)C1CCN(C(=O)CN2C(=O)COc3ccc(C(C)(C)C)cc32)CC1	active: 79.4 µM
CCOc1ccc(NC(=O)CNc2ccc(C)cc2Cl)cc1	inconclusive: 56.2 µM [inhibitor, partial curve]
O=C(NCc1cccc(OC(F)(F)F)c1)c1ccc2c(c1)S(=O)(=O)c1cc(Cl)ccc1C2=O	inconclusive: 6.31 µM [inhibitor, full curve]
Cn1cccc1Cc1nnc(SCC(=O)Nc2ccc3c(c2)OCO3)n1CCc1ccccc1	inconclusive: 44.7 µM [inhibitor, partial curve]
COc1cccc(NC(=S)N(CCCN2CCOCC2)Cc2cn(C)c3ccccc23)c1	inconclusive: 44.7 µM [inhibitor, partial curve]
Oc1ccc(N=Nc2cccc(Cl)c2)cc1C=Nc1ccc(N2CCOCC2)cc1	inconclusive: 5.62 µM [inhibitor, full curve]
Cc1cc(-c2ccccc2)nc2[nH]n(-c3ccccc3)c(=O)c12	inconclusive: 79.4 µM [inhibitor, partial curve]
Cc1ccc(CNCC(=O)Nc2ccc(N3CCOCC3)cc2)cc1	active: 1.41 µM
CC(/C=N/NC(=O)Cc1cccn1C)=C\c1ccco1	inconclusive: 50.1 µM [inhibitor, partial curve]
Oc1ccc2ccccc2c1-c1sc(Nc2ccccc2)n[n+]1-c1ccc(F)cc1	inconclusive: 22.4 µM [inhibitor, partial curve]
CCCN(CC(=O)Nc1ccccc1C)C(=O)C1CCN(S(=O)(=O)c2cccc(C(F)(F)F)c2)CC1	inactive
CN1C=CC(=O)[C@@H](O)[C@H]1c1ccccc1Br	inactive
O=C(CSC1=NCCS1)NC(c1ccccc1)c1ccccc1	inconclusive: 39.8 µM [inhibitor, single point]
O=S(=O)(/N=C(/c1ccccc1)N1CCOCC1)c1ccc(F)cc1F	inactive
CCN(CC)C(=O)c1c(-c2ccccc2)c(-c2ccccc2)nn(C)c1=O	inactive
CCOC(=O)c1csc(NC(=O)CSc2nnc(C3CC3)n2C)n1	inconclusive: 11.2 µM [inhibitor, partial curve]
O=C(N[C@@H](Cc1c[nH]c2ccccc12)C(=O)O)OCC1c2ccccc2-c2ccccc21	inconclusive: 20 µM [inhibitor, full curve]
O=C(O)c1ccc(S(=O)(=O)c2ccccc2C(=O)O)c([N+](=O)[O-])c1	inactive
Cc1[nH]nc(-c2ccc(O)c(C)c2O)c1Oc1ccccc1	inconclusive: 100 µM [inhibitor, single point]

Compound	Potency
Oc1nc(-c2ccc(Br)cc2)n2ccncc12	inactive
Cc1ccc(C)c(N2CCN(C(=O)C3CCN(c4nc5ccc(C)cc5[nH]4)CC3)CC2)c1	inconclusive: 44.7 µM [inhibitor, partial curve]
Cc1ccc(N2CCN(C(=O)c3c(C)oc4ncn(CC(C)C)c(=O)c34)CC2)c(C)c1	inactive
O=C(CCCCCBr)N1CCC(CC2CC(c3cccc(Br)c3)=NO2)(C(=O)NCC2CCCCC2)CC1 (stereo not drawn)	inconclusive: 79.4 µM [inhibitor, single point]
Cc1nc2cc(-c3ccsc3-n3c(C)ccc3C)[nH]n2c(=O)c1Cl	inconclusive: 44.7 µM [inhibitor, full curve, poor fit]
COC(=O)c1ccc(CSc2nc3ccccc3c(=O)n2-c2ccc(OC)c(OC)c2)o1	inactive
CCN(CC)C(=O)c1sc2c(c1C)c(=O)n(-c1ccc(Cl)c(Cl)c1)c(=O)n2Cc1ccccc1C#N	inactive
COCCCNc1oc(/C=C/c2cc(OC)c(OC)c(OC)c2)nc1C#N	inactive
CCOc1ccc(NC(=O)COC(=O)CCN2C(=O)C3CC=CCC3C2=O)cc1OCC (stereo not drawn)	inconclusive: 7.08 µM [inhibitor, partial curve]
COc1ccc(CC(=O)NNC(=O)c2cc(Cl)ccc2OC)cc1	inactive
O=C(NNc1cc(Br)c(O)c(Br)c1)c1ccccc1	active: 8.91 µM
CN1CCc2c1nc1ccccc1c2N (tested in a mixture with another compound)	inactive
CC(OC(=O)CCC(=O)c1cccs1)C(=O)Nc1ccccc1[N+](=O)[O-] (stereo not drawn)	inconclusive: 89.1 µM [inhibitor, partial curve]
CCOc1ccc(C(=O)NCCn2cc(SCC(=O)Nc3ccc4c(c3)OCCO4)c3ccccc32)cc1	inactive
Cc1nc2scc(C)n2c(=O)c1S(=O)(=O)Nc1ccc(N2CCOCC2)c(Cl)c1	inconclusive: 31.6 µM [inhibitor, partial curve]
O=C(CN1CCN(c2ccc(O)cc2)CC1)Nc1ccc2c(c1)OCCO2	active: 79.4 µM
CSc1cccc(NC(=S)N(CCC(C)C)C(C)c2ccncc2)c1 (stereo not drawn)	inconclusive: 56.2 µM [inhibitor, partial curve, poor fit]
CCOc1[nH]n(-c2ccccc2)c(=O)c1C=Nc1ccc(OC)cc1	inconclusive: 17.8 µM [inhibitor, full curve]
CC1CCN(CCCOc2ccc(Cl)cc2Br)CC1	active: 20 µM
Cc1ccc(S(=O)(=O)Nc2cc3c(cc2NCc2ccccc2)n(C)c(=O)n3C)c(C)c1	inconclusive: 22.4 µM [inhibitor, full curve]
Cc1ccc2nc(NC(=O)CSCC(=O)OCC(=O)c3ccc(Br)cc3)sc2c1	inconclusive: 3.16 µM [inhibitor, partial curve]
O=C(O)c1ccn[nH]1	active: 44.7 µM
Cc1cccc(NC(=S)N(Cc2ccc(Cl)cc2)Cc2ccc(C(=O)O)cc2)c1	inactive
